Among all 45,000 compounds or so, about 65 (0.1%) were called active. Calls follow the shape of the dose curve; as a rule, active = well fitted activation curve with a large enough effect; inconclusive = small, poorly fitted or top-dose-only effect; inactive = no such curve, though single readings can be large or run the other way. This is one part of the list.
Molecular target: Galactocerebrosidase (Homo sapiens) (UniProt P54803)
Experiment: A Novel Cell-Based Assay to Identify Small Molecules for B -Galactocerebrosidase; also: 0% is about no effect; nearly all actives have a fitted effect of over 65% in size
Details: 145M-Twi-hGALC-G270D cells (Twitcher mouse brain line with human GALC G270D), HMU-beta-Gal fluorescence, 48 h; series mostly up to 57.5 µM; activation: at the top concentration
Procedure, shortened: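 Fluorescence readout: HMU-β-gal cleavage by mutant GALC (0.1 mM final, citrate/phosphate pH 5.2 with 1 mg/mL taurocholate), stopped with carbonate/bicarbonate plus Triton X-100. Cells: murine Twitcher 145M-Twi expressing human G270D GALC; qHTS for activators.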

Chain of UniProt P54803 (P54803 whole entry, looked up): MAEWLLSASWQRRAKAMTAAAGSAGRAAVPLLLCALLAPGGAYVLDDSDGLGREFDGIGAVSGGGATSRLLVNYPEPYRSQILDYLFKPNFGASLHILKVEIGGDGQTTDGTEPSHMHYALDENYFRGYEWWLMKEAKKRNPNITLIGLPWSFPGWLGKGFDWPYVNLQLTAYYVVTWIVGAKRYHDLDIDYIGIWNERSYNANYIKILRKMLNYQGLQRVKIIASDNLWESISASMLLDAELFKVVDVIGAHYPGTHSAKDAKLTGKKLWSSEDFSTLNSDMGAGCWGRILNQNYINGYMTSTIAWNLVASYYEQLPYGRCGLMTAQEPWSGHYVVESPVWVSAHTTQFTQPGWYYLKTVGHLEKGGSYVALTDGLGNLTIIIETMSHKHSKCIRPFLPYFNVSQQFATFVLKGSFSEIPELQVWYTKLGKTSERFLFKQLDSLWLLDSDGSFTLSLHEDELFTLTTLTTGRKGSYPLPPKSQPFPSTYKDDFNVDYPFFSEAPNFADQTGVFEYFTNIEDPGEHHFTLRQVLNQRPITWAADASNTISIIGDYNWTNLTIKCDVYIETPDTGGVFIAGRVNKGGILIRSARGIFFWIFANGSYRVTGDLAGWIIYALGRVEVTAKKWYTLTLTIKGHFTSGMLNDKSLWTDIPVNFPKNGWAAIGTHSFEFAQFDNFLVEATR

activation, inactive:
CC(C)OCCCNC(=O)c1nn(C)c2c1CSc1ccccc1-2 -1.84%
CCCOC(=O)c1ccc(Nc2c(C(=O)OCC)cnc3c(C)cc(Cl)cc23)cc1 -5.07%
COc1ccc(-c2noc(CSc3nnc(-c4ccccc4)n3C)n2)cc1 -8.47%
COc1ccc(-n2cc(C(=O)NC(C)c3ccccc3)c3ccccc3c2=O)cc1 (stereo unspecified) -2.75%
O=C(NC1CCCC1)c1ccc(CSc2nc3ccncc3n2Cc2ccc(F)cc2)cc1 -1.47%
Cc1ccc(N2CC(c3nnc(NC(=O)c4ccco4)s3)CC2=O)cc1C (stereo unspecified) -12.1%
CCOc1ccc(NC(=O)c2ccc(-c3cccc(Cl)c3C)o2)cc1 -8.99%
Cc1ccc(NC(=O)Cn2cc(S(=O)(=O)N3CCCC3)c(S(=O)(=O)N3CCCC3)c2)cc1C -27.1%
CCN1CCN(c2cc(C)c3cc(NC(=O)/C=C/c4cccc(Cl)c4)ccc3n2)CC1 -7.87%
CCCCC[C@H](O)C=C[C@H]1[C@H](O)CC(=O)[C@H]1CC=CCCCC(=O)O -11.2%
CCOc1ccc(Cn2c(CNS(=O)(=O)c3ccc([N+](=O)[O-])cc3)nc3cccnc32)cc1 -4.76%
O=c1c2cc3c(nc2ncn1Cc1ccccc1F)CCCC3 -18.7%
CCOC(=O)c1cnc2c(ccc3ccccc32)c1Nc1ccc(OC)c(OC)c1 -7.03%
Cc1cccc(C2C=C(c3ccc(F)cc3)Nc3nc4ccccc4n32)c1 (stereo unspecified) -2.72%
Cc1ccc(NC(=O)Nc2nnc(SCC(=O)N3CCC(C)CC3)s2)cc1 -5.29%
COc1ccc(C(=O)NCCSc2c(C)[nH]c3ccccc23)cc1 -36.8%
COCCn1ccc2c(OCC(=O)NCc3ccc(F)cc3)cccc2c1=O -15.5%
COc1ccc(C(=O)N2CCC(c3c[nH]c4ccccc34)(c3c[nH]c4ccccc34)CC2)cc1 -17.3%
COc1ccccc1-c1cc(C(F)(F)F)nc(S(=O)(=O)CCCC(=O)Nc2ccc(F)c(Cl)c2)n1 -6.73%
Cc1ccc(C)c(CN2C(=O)c3ccccc3S(=O)c3ccc(C(=O)NCCc4ccc(Cl)cc4)cc32)c1 (stereo unspecified) 4.64%
Cc1c(NS(C)(=O)=O)cccc1-c1nc2ccccc2s1 -3.81%
COc1ccc(NC(=O)c2sc3nc(-c4cc5cccc(OC)c5oc4=O)[nH]c(=O)c3c2C)cc1 -10.2%
COc1ccccc1CNC(=O)c1oc2c(c1C)-c1nn(Cc3ccc(Cl)cc3)cc1CC2 -7.28%
COc1ccc(NC(=O)c2cc(C3CC3)nc3c2c(C)nn3-c2ccc(C)cc2)cc1OC -16.2%
CN(C)c1ccc(CNC(=O)C2CCN(S(=O)(=O)c3cn(C)cn3)CC2)cc1 -17.6%
CCOc1ccc(N(CC)S(=O)(=O)N2CCCC(C(=O)NCc3ccc(SC)cc3)C2)cc1 (stereo unspecified) -18.6%
COc1cccc(CNC(=O)NCc2noc3ccc(C)cc23)c1 -18.6%
COc1ccc(NC(=O)Nc2nnc(N3CCCCCC3)s2)c(OC)c1 -22.8%
COc1ccc(NC(=O)CN2C(=O)COc3ccc(S(=O)(=O)N4CCOCC4)cc32)cc1Cl -9.62%
COc1ccc(N2CCN(C(=O)CCS(=O)(=O)c3cc(Br)cc4c3N(C(=O)C3CC3)CC4)CC2)cc1 -10.9%
Cc1ccc(NC(=O)CN2C=NS(=O)(=O)c3ccccc32)c(C)c1 -18.7%
COc1ccccc1C(=O)Nc1ccc(C(=O)OCc2cc(=O)n3ccsc3n2)cc1 3.85%
COc1ccccc1C(=O)NC(=O)Nc1ccc(-n2nc(C(F)(F)F)cc2C(F)(F)F)cc1 -14.5%
Cc1ccc(N2CC(NC(=O)CCc3ccccc3)CC2=O)cc1 (stereo unspecified) -12.1%
COc1ccc(-c2ccc3c(N)c(C(=O)Nc4cccc(C)c4)sc3n2)cc1 -23.9%
COc1cccc(CSc2nc3n(n2)C(c2cccnc2)C(C(=O)Nc2ccccc2C)=C(C)N3)c1 (stereo unspecified) -7.18%
CC1=C(C(=O)NCc2ccc(Cl)cc2)C2(CCCCCC2)OC1=O 13.1%
CCOC(=O)CCn1nc(C)c2c(C)n(-c3ccccc3)nc2c1=O -12.6%
Cc1cccc(N2CCN(C(=O)Cn3c(=O)c4cccn4c4ccc(F)cc43)CC2)c1C -14.5%
Cc1nc2cc(C(=O)O)ccc2n1-c1ccc(C(C)C)cc1 -15.9%
CCOC(=O)c1sc(NC(=O)c2cc3nc(-c4ccc(Br)cc4)cc(C(F)(F)F)n3n2)c(C(=O)OCC)c1C -6.61%
COc1ccc(OC)c(CNC(=O)CN2C(=O)CCn3nc(-c4cn(C)c5ccccc45)cc32)c1 -18.2%
N#Cc1ccc(NS(=O)(=O)c2ccc(-c3cnc(C4CC4)o3)cc2)cc1 -17.4%
Cc1ccc(NC(=O)c2ccc(Br)cc2)c(C(=O)c2ccccc2)c1 -9.37%
CC(C)CC(=O)Nc1ccc(Cl)c(-c2nc3ccccc3[nH]2)c1 -5.58%
Cc1nc2nc(SCC(=O)NCc3ccccc3)nn2c(C)c1Cc1ccccc1 -8.46%
CCc1cccc(NC(=O)CN2C=NS(=O)(=O)c3ccccc32)c1 -16.2%
CNC(=O)c1ccc(Nc2nnc(-c3ccc(C)c(S(=O)(=O)N4CCOCC4)c3)c3ccccc23)cc1 -13.1%
Cc1ccc(C)n1-c1nnc(N2CCCC(C(=O)NCc3ccccc3)C2)s1 (stereo unspecified) -16.8%
COc1cc2nc(NCC(C)c3ccccc3)n3nc(-c4ccccc4)nc3c2cc1OC (stereo unspecified) -17%
Cc1ccc(NC(=O)CCc2c(C)nc3nc(C)nn3c2C)c(Cl)c1 2.19%
CCOc1nc(NC(=O)NS(=O)(=O)Oc2ccccc2Cl)nc(-c2ccccc2)n1 -11.8%
CC(=O)Oc1ccccc1C(=O)O -9.8%
O=C(NCc1ccccc1)C(=O)NCC(c1cccnc1)N1CCN(c2ccccc2)CC1 (stereo unspecified) -4.24%
COc1ccc(CCNC(=O)c2nn(C)c3c2CSc2ccccc2-3)cc1OC -9.55%
Cc1ccc(N(Cc2cccs2)C(=O)COc2ccccc2[N+](=O)[O-])cc1 -6.14%
CC(=O)Nc1ccc(S(=O)(=O)NCCc2csc3nc(-c4cccc(C)c4)nn23)cc1 -17.2%
O=C(c1ccco1)n1nc(-c2ccccc2)nc1NCc1ccccc1Cl -20.2%
O=C(NCc1ccccc1Cl)C1CCC(CNS(=O)(=O)c2ccc(Br)s2)CC1 (stereo unspecified) -12.9%
CCc1ccc(NC(=O)CSc2nc3ccsc3c(=O)n2C(C)CC)cc1 (stereo unspecified) 4.27%
Cc1cccc(-c2nc(Cn3c(SCc4cc(C)ccc4C)nc4ccncc43)c(C)o2)c1 -10.1%
COc1ccccc1-n1c(SCC(=O)Nc2ccc(C)cc2)nc(O)cc1=O -11.8%
COc1cc(CN(C(=O)c2oc3ccccc3c2C)C2CCS(=O)(=O)C2)cc(OC)c1OC (stereo unspecified) -4.07%
O=C(CCCn1c2ccccc2c(=O)c2ccccc21)Nc1ccc(F)cc1Cl -15.3%
Cc1ccc(-c2nn3c(-c4ccc(C)cc4)nnc3c3ccccc23)cc1 -8.79%
CNS(=O)(=O)CCc1ccc2[nH]cc(C3CCN(C)CC3)c2c1 -3.61%
COc1ccc(-c2noc(-c3ccc(NC(C)c4ccccc4)c([N+](=O)[O-])c3)n2)cc1OC (stereo unspecified) 1.09%
CCc1ccc(-c2cc(C)no2)cc1S(=O)(=O)Nc1ccc(Cl)cc1 -9.5%
COc1cccc(NC(=O)c2cc3c(=O)n(Cc4cccnc4)ccc3nc2C)c1 -9.63%
COc1ccccc1CNC(=O)CCC1N=C2c3ccccc3N=C(SCC(=O)NCCc3ccc(OC)c(OC)c3)N2C1=O (stereo unspecified) -10.4%
Cc1ccc(-c2nc(S(=O)(=O)c3ccc(C)cc3)c(SCC(=O)NC3CCCCC3)o2)cc1 -25.9%
COc1cc(NC(=O)C(CCS(C)(=O)=O)N2Cc3ccccc3C2=O)cc(OC)c1OC (stereo unspecified) -13.2%
COc1cccc(C2CC(=O)N3CN(C4CCCCC4)CSC3=C2C#N)c1 (stereo unspecified) -11.4%
CC1CN(C(=O)N2CCC(C(=O)NC3CCCCCC3)CC2)c2ccccc2O1 (stereo unspecified) -14.9%
CCCN1C(=O)c2[nH]nc(-c3ccc(F)cc3)c2C1c1ccccn1 (stereo unspecified) -15.1%
CN(C)c1ccc(NC(=O)CSC2=Nc3ccccc3C3=NC(CC(=O)NCc4ccccc4)C(=O)N23)cc1 (stereo unspecified) -15.8%
CCOc1ccccc1CN(CCc1ccc2c(c1)OCO2)Cc1cccc(OC)c1OC -26.4%
CCOC(=O)c1c(C)[nH]c(CCC(=O)NCc2ccccc2C)c1C -12%
CCN1CCC(N(Cc2ccc3c(c2)OCO3)C(=O)Nc2ccccc2OC)CC1 -11.1%
Cc1ccc(C)c(NC(=O)CCCn2c(C)c3cnn(-c4ccccc4)c(=O)c3c2C)c1 8.71%
CCc1ccc(NC(=O)CSc2nc(C)c(C(=O)Nc3ccc(Cl)cc3)c(-c3ccc(OC)cc3)c2C#N)cc1 -11.2%
Cc1cc(C)c2c(n1)SCC(=O)N2CC(=O)Nc1ccccc1C -6.8%
CNC(=O)C1CCC(Cn2c(=O)c3sccc3n(CC(=O)NCc3ccc(C)cc3)c2=O)CC1 (stereo unspecified) -6.39%
COc1ccc(NC(=O)Cn2c(=O)oc3cc(Cl)ccc32)c(OC)c1 -11.6%
Cn1c(=O)oc2cc(S(=O)(=O)N3CCCC(C(=O)NCc4ccccc4Cl)C3)ccc21 (stereo unspecified) -11.2%
O=C(CSc1nc2c([nH]c3ccccc32)c(=O)n1-c1ccccc1)N1CCCc2ccccc21 -7.98%
Cc1ccccc1C(=O)Nc1sc2c(c1C(=O)O)CCC(C(C)(C)C)C2 (stereo unspecified) -20.7%
O=C(CSc1nc2c([nH]c3ccccc32)c(=O)n1-c1ccc(F)cc1)NCC1CCCO1 (stereo unspecified) -14.3%
CC1=C(c2ccc(F)cc2)S(=O)(=O)N=C1N1CCC(C(=O)NCCc2ccccc2)CC1 -10.5%
Cc1nc(N2CCCC2)ncc1C(=O)NCc1ccc(Cl)cc1 -9.13%
CC(C)c1ccc(Cc2cn3cc(-c4cc5ccccc5oc4=O)nc3s2)cc1 -11.8%
COc1cccc(-n2c(SCC(=O)Nc3cccc(C)c3)nc3c([nH]c4ccccc43)c2=O)c1 -29.2%
Cc1ccc(NC(=O)NCCOCCn2c(=O)oc3ccccc32)c(C)c1 -10.9%
COc1ccccc1N1CCN(S(=O)(=O)c2ccc(-c3ccno3)cc2OC)CC1 0.202%
O=C(NCc1ccc(Cl)cc1)c1cc2ccc3cccnc3c2[nH]1 -12.3%
Cc1cccc(NC(=O)c2cc(CN3CCOCC3)on2)c1C -5.5%

Reference: PubChem BioAssay AID1159614 (National Center for Advancing Translational Sciences (NCATS), 2016)
